Hit rate of the full screen: of about 310,000 compounds, about 2,200 (0.71%) showed an effect of 50% or more. The effect is printed as a negative number. The list shows a part of the results.
Target: human ether-à-go-go-related gene (hERG) potassium channel (human, UniProt Q12809)
Experiment: primary screen, population patch clamp on CHO cells stably expressing hERG

Sequence of human ether-à-go-go-related gene (hERG) potassium channel (Q12809 whole entry, looked up): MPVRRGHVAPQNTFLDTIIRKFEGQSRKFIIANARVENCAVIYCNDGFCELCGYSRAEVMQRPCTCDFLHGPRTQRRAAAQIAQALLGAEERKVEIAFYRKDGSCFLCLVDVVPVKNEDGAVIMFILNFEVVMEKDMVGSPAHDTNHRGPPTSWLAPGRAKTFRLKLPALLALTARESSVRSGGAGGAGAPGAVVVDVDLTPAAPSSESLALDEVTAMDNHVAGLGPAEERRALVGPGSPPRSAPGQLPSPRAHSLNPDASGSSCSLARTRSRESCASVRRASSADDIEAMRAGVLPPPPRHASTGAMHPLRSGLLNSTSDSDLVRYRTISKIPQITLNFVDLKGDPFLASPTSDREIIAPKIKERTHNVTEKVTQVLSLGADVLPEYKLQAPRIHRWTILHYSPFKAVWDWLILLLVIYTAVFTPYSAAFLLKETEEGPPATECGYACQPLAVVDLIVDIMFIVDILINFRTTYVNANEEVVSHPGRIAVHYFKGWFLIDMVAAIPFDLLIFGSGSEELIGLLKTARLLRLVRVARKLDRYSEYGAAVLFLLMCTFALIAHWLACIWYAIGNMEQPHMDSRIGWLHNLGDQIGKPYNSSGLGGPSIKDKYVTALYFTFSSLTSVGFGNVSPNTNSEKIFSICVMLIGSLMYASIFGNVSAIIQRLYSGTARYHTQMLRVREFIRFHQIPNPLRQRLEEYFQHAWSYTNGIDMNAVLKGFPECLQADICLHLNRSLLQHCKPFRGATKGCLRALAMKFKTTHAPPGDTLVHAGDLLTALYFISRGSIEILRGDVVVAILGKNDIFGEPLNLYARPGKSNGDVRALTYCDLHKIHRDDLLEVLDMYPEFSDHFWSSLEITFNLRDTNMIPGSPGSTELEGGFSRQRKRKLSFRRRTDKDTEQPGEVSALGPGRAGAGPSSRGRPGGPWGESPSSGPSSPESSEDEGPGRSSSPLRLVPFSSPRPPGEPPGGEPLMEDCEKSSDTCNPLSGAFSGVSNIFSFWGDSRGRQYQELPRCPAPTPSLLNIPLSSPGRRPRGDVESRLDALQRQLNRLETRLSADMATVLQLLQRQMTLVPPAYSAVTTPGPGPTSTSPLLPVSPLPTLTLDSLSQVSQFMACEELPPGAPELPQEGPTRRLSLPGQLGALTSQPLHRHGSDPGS

Which “hERG current change (%, negative = inhibition) at 1uM” value does the source give for `Cc1ccc(C)c(-n2c3nc(=O)n(C)c(=O)c-3cc3ccccc32)c1` here?
Its value is 11.4%.

With `Cn1c(=O)c2c(ncn2CC(=O)N/N=C/C=C/c2ccccc2)n(C)c1=O` as the molecule, how does the “hERG current change (%, negative = inhibition) at 1uM” value read?
Its value is 7.44%.

For `NS(=O)(=O)c1ccc(NC(=O)COC(=O)CSc2n[nH]c(-c3ccccc3)n2)cc1`, which “hERG current change (%, negative = inhibition) at 1uM” value is on record?
Its value is 12.5%.

How did the “hERG current change (%, negative = inhibition) at 1uM” value turn out when `Cc1ccccc1-c1nc(C#N)c(NCc2ccco2)o1` was run?
Its value is -13.9%.

With `c1csc(CSc2nc3ccccc3s2)c1` as the molecule, how does the “hERG current change (%, negative = inhibition) at 1uM” value read?
The value was 13.4%.

For `CCc1ccc2c(CN3CCN(S(=O)(=O)c4cccs4)CC3)cc(=O)oc2c1`, which “hERG current change (%, negative = inhibition) at 1uM” value is on record?
The value was -0.807%.

With `COc1ccc(-c2nnn(CC(=O)NCCc3ccc(OC)c(OC)c3)n2)cc1` as the molecule, how does the “hERG current change (%, negative = inhibition) at 1uM” value read?
Its value is 12.3%.

`CC(=O)Nc1ccc(NC(=O)C(C)OC(=O)/C(C#N)=C/c2ccc(N(C)C)cc2)cc1` (stereo not drawn) was tested. Which “hERG current change (%, negative = inhibition) at 1uM” value did it give?
Its value is 2.57%.

How did the “hERG current change (%, negative = inhibition) at 1uM” value turn out when `O=C(c1cccs1)N1CCN(C(=O)N2CCOCC2)CC1` was run?
The value was 15.2%.

Which “hERG current change (%, negative = inhibition) at 1uM” value does the source give for `CCOc1ccc2nc(NCCNC(=S)NCCCN(C)C)c(C#N)cc2c1` here?
Its value is -3.65%.

How did the “hERG current change (%, negative = inhibition) at 1uM” value turn out when `O=C(O)C1SCCN1S(=O)(=O)c1ccc(N=NN2CCOCC2)cc1` (stereo not drawn) was run?
The value was 8.42%.

`O=C1OCC/C1=C\OCCCO/C=C1\CCOC1=O` was tested. Which “hERG current change (%, negative = inhibition) at 1uM” value did it give?
The value was 14.3%.

Which “hERG current change (%, negative = inhibition) at 1uM” value does the source give for `O=C(N/N=C/c1sc2ccccc2c1O)c1ccccc1` here?
Its value is 5.08%.

For `COc1ccc(C2CC(c3cccs3)=NN2C(=O)CN2CCCCC2)cc1` (stereo not drawn), which “hERG current change (%, negative = inhibition) at 1uM” value is on record?
Its value is -27.7%.

For `Cc1oc(-c2cccs2)nc1CN1CCN(CC(C)C)C(CCO)C1` (stereo not drawn), which “hERG current change (%, negative = inhibition) at 1uM” value is on record?
The value was 6.6%.

Which “hERG current change (%, negative = inhibition) at 1uM” value does the source give for `COc1ccc2c(CC(=O)OCC(=O)Nc3cc(C)c(C)cc3[N+](=O)[O-])coc2c1` here?
Its value is 6.23%.

`COc1ccc2c(c1)CC1(CN2C)C(=O)NC(=O)N(c2ccc(C)cc2)C1=O` (stereo not drawn) was tested. Which “hERG current change (%, negative = inhibition) at 1uM” value did it give?
Its value is 12.1%.

How did the “hERG current change (%, negative = inhibition) at 1uM” value turn out when `CC(OC(=O)C(C)Oc1ccccc1)C(=O)Nc1ccc(S(=O)(=O)N2CCCCC2)cc1` (stereo not drawn) was run?
Its value is 12.9%.

`O=C(NCC(=O)N(Cc1cccs1)C(C(=O)NC1CCCC1)c1ccco1)c1cccs1` (stereo not drawn) was tested. Which “hERG current change (%, negative = inhibition) at 1uM” value did it give?
Its value is 13.6%.

Which “hERG current change (%, negative = inhibition) at 1uM” value does the source give for `COc1ccc(CCN2C(=O)CN=C2Nc2ccc(F)cc2)cc1OC` here?
The value was 7.26%.

With `Cc1ncc([N+](=O)[O-])n1CC(=O)NCCc1ccccc1` as the molecule, how does the “hERG current change (%, negative = inhibition) at 1uM” value read?
Its value is 10.8%.

With `COCC(=O)N1CCCc2ccccc21` as the molecule, how does the “hERG current change (%, negative = inhibition) at 1uM” value read?
The value was 1.28%.

For `Cc1ccc(Cl)cc1N1CCN(S(=O)(=O)c2cnc[nH]2)CC1`, which “hERG current change (%, negative = inhibition) at 1uM” value is on record?
Its value is 1.64%.

`Cl.NC(CCCCc1ccccc1)c1cccc2ccccc12` (stereo not drawn) was tested. Which “hERG current change (%, negative = inhibition) at 1uM” value did it give?
Its value is 12.9%.

How did the “hERG current change (%, negative = inhibition) at 1uM” value turn out when `COc1ccc(C(=O)CCS(=O)(=O)c2ccc(C)cc2)cc1OC` was run?
The value was 8.44%.

Which “hERG current change (%, negative = inhibition) at 1uM” value does the source give for `COC(=O)C(O)(c1ccc(NC(=O)c2cccs2)c(C)c1)C(F)(F)F` (stereo not drawn) here?
Its value is 13.2%.

Which “hERG current change (%, negative = inhibition) at 1uM” value does the source give for `CCN(CC)C(=O)c1sc2nc(-c3ccc(OC)cc3)cn2c1C` here?
The value was 4.72%.

How did the “hERG current change (%, negative = inhibition) at 1uM” value turn out when `COCCNc1nc(-c2ccccc2)nc2c1oc1ccccc12.Cl` was run?
Its value is 10.4%.

With `NNC(=O)CN1CCCc2ccccc21` as the molecule, how does the “hERG current change (%, negative = inhibition) at 1uM” value read?
Its value is 18.3%.

`Cc1ccc(C(=O)N2CCCC(c3nc4c(nnn4Cc4ccccc4)c(=O)[nH]3)C2)cc1` (stereo not drawn) was tested. Which “hERG current change (%, negative = inhibition) at 1uM” value did it give?
The value was -21.9%.

How did the “hERG current change (%, negative = inhibition) at 1uM” value turn out when `N/C(=N\OC(=O)N1c2ccccc2Sc2ccccc21)c1ccc(Br)cc1` was run?
The value was -3.59%.

Which “hERG current change (%, negative = inhibition) at 1uM” value does the source give for `O=C(c1ccccc1)N(Nc1ccccc1)c1ccccc1` here?
Its value is 12.1%.

`C/C(=N/NS(=O)(=O)c1ccc(C)cc1)c1c[nH]c2ccccc12` was tested. Which “hERG current change (%, negative = inhibition) at 1uM” value did it give?
Its value is 12.1%.

`O=C(Nc1ccc(N2CCOCC2)cc1)c1nc2ccccc2s1` was tested. Which “hERG current change (%, negative = inhibition) at 1uM” value did it give?
Its value is 3.45%.

How did the “hERG current change (%, negative = inhibition) at 1uM” value turn out when `Cc1cccc(CS(=O)(=O)Cc2ccc(C(=O)NC(C)c3ccccc3)o2)c1` (stereo not drawn) was run?
The value was 11.1%.

Which “hERG current change (%, negative = inhibition) at 1uM” value does the source give for `Cc1ccc(-c2csc3ncnc(SCC(=O)NCc4ccc5c(c4)OCO5)c23)cc1` here?
The value was 7.69%.

With `Cc1ccc(-n2cccc2/C=N/n2cnnc2)cc1Cl` as the molecule, how does the “hERG current change (%, negative = inhibition) at 1uM” value read?
The value was 6.56%.

`CC(=C/c1ccccc1)/C=N/N1CCN(Cc2ccc(C)cc2)CC1` was tested. Which “hERG current change (%, negative = inhibition) at 1uM” value did it give?
Its value is 12.6%.

For `Cc1ccc(S(=O)(=O)Cn2nnnc2C(CC(C)C)N2CCC(C(N)=O)CC2)cc1` (stereo not drawn), which “hERG current change (%, negative = inhibition) at 1uM” value is on record?
Its value is 6.43%.

For `CC(C)Oc1cccc(C(=O)C2CCCN(Cc3cnn(C(C)C)c3)C2)c1` (stereo not drawn), which “hERG current change (%, negative = inhibition) at 1uM” value is on record?
The value was -5.14%.

Which “hERG current change (%, negative = inhibition) at 1uM” value does the source give for `CCC(=O)NCCc1nc2cc(NC(=O)c3ccco3)ccc2n1C` here?
The value was 19%.

How did the “hERG current change (%, negative = inhibition) at 1uM” value turn out when `Cc1cccc(C(=O)NC2CCN(CC(=O)NCc3ccccc3F)CC2)c1` was run?
The value was 1.91%.

`COc1ccc2nc(NC(=O)C3CCN(S(=O)(=O)c4cccnc4)CC3)sc2c1` was tested. Which “hERG current change (%, negative = inhibition) at 1uM” value did it give?
Its value is -15.3%.

`CCCCCOc1ccccc1C(=O)NCCC(=O)O` was tested. Which “hERG current change (%, negative = inhibition) at 1uM” value did it give?
Its value is 19.8%.

`COc1ccc(CNS(=O)(=O)c2cc3c(cc2Cl)NC(=O)CO3)cc1` was tested. Which “hERG current change (%, negative = inhibition) at 1uM” value did it give?
Its value is -3.85%.

`Cc1cccc(C)c1NC1=NC(=S)N(c2ccccc2)C12CCOC(C)(C)C2` (stereo not drawn) was tested. Which “hERG current change (%, negative = inhibition) at 1uM” value did it give?
Its value is 10.7%.

Which “hERG current change (%, negative = inhibition) at 1uM” value does the source give for `Cc1cccc(C(=O)OCC(=O)NCc2cccs2)c1` here?
The value was 11.9%.

For `Cc1nnsc1C(=O)N1CCC(C(=O)c2ccccc2)CC1`, which “hERG current change (%, negative = inhibition) at 1uM” value is on record?
Its value is 11.1%.

How did the “hERG current change (%, negative = inhibition) at 1uM” value turn out when `COc1ccc(OC)c(NC(=O)C2CCN(S(=O)(=O)c3cccs3)CC2)c1` was run?
The value was -2.62%.

`COc1cccc(CNC(=O)C2CCN(S(=O)(=O)N3CC(C)CC(C)C3)CC2)c1` (stereo not drawn) was tested. Which “hERG current change (%, negative = inhibition) at 1uM” value did it give?
Its value is 7.69%.

With `C/C(=N\NC(=O)c1ccoc1C)c1cccnc1` as the molecule, how does the “hERG current change (%, negative = inhibition) at 1uM” value read?
Its value is 15%.

For `CCN(CC)C(=O)C12CC3CC(CC(Cl)(C3)C1)C2`, which “hERG current change (%, negative = inhibition) at 1uM” value is on record?
The value was 8.23%.

How did the “hERG current change (%, negative = inhibition) at 1uM” value turn out when `CCOC(=O)c1c(NC(C)=O)sc2c(OC)cccc12` was run?
Its value is 4.3%.

For `CC(C)(C)OC(=O)NCc1ccc(CNC(=O)c2nc[nH]c2C(=O)NCc2ccccc2)cc1`, which “hERG current change (%, negative = inhibition) at 1uM” value is on record?
Its value is 12.7%.

For `COC(=O)CSc1nc2c(c(C3CC=CCC3)c1C#N)CCC2` (stereo not drawn), which “hERG current change (%, negative = inhibition) at 1uM” value is on record?
Its value is 13.6%.

With `Cc1ccc(CS(=O)(=O)CC(C)(O)c2ccc(Cl)cc2)cc1` (stereo not drawn) as the molecule, how does the “hERG current change (%, negative = inhibition) at 1uM” value read?
The value was 5.92%.

With `CC(C)=C(NC(=O)c1ccccc1)C(=O)N/N=C/c1ccc(O)cc1` as the molecule, how does the “hERG current change (%, negative = inhibition) at 1uM” value read?
Its value is -6.84%.
